Source: PubChem BioAssay AID504466 (National Center for Advancing Translational Sciences (NCATS), 2011)
The whole screen tested about 330,000 compounds, of which about 4,200 (1.3%) were called active. Inconclusive results, whose numbers are uncertain, are shown with a selection of clear calls. The call rests on the fitted dose curve; in most records, active means well fitted activation curve with a large enough effect; inconclusive means small, poorly fitted or top-dose-only effect; inactive means no such curve, though single readings can be large or run the other way. Where the call is inconclusive, the potency comes from a doubtful curve fit.

assay: qHTS screen for small molecules that induce genotoxicity in human embryonic kidney (HEK293T) cells expressing luciferase-tagged ELG1; conditions: HEK293T ELG1-luciferase reporter, luminescence, 16 h; series mostly up to 46 µM; activity change, positive = activation: at the top concentration; further: nearly all actives have a fitted effect of over 60% in size; on activity change, positive = activation: % of control where 0% means no effect
Outline: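 Luminescence read-out: rising ELG1-luciferase signal, reflecting elevated ELG1 protein under genetic stress, flags genotoxic compounds. Cells were treated for 16 hr at 37 °C before ONE-Glo detection.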
Potency means the concentration at half of the fitted maximal effect; tags describe the fitted curve by direction and shape.

SMILES | activity change, positive = activation | Potency
COCC(C)NC(=O)C(C)N1c2cccc3cccc(c23)S1(=O)=O (stereo unspecified) | inactive: 0.539% | 
CN(Cc1ccsc1)C(=O)CCc1nnc(CCCc2ccccc2)o1 |  | inconclusive: 18.3 µM [activator, partial curve, poor fit]
Fc1ccc2c(c1)C(c1ccncc1)=NNC(c1ccc(Br)cc1)=N2 | inactive: -3.6% | 
Cc1ccc2nc(-c3ccc(NC(=S)NC4CC(C)(C)NC(C)(C)C4)cc3)sc2c1 |  | inconclusive: 18.3 µM [activator, single point]
CCCN(CC(=O)Nc1ccc(Cl)cc1Cl)C(=O)/C=C/c1ccco1 |  | inconclusive: 20.6 µM [activator, single point]
CCN1CCN(c2ccc(S(=O)(=O)N3CCCCC3)cc2NC(=O)/C=C/c2cccc(OC)c2OC)CC1 |  | inconclusive: 29.1 µM [activator, single point]
COc1ccccc1N(Cc1ccccc1)S(=O)(=O)c1cccc(C(=O)Nc2cc(C)ccn2)c1 |  | inconclusive: 0.164 µM [activator, partial curve, poor fit]
O=C(Nc1nc2nccc(-c3ccccc3)n2n1)c1ccccc1 |  | inconclusive: 18.3 µM [activator, partial curve, poor fit]
C#CCOCCOCCOCCNc1nc(N2CCN(C(=O)CCCCCCCCCCNC(=O)[C@H]([C@@H](C)CC)n3cc(CCCCCN)nn3)CC2)nc(N2CCN(C(=O)CCCCCCCCCCNC(=O)[C@H](CO)n3cc(CCCCCN)nn3)CC2)n1 | inactive: 0.805% | 
O=C(Nc1nnc(-c2ccc3c(c2)CCCC3)o1)c1ccccc1 |  | inconclusive: 25.9 µM [activator, single point]
CCN(Cc1ccccc1)c1ccc(/C=C(\C#N)c2ccccn2)cc1 |  | inconclusive: 9.2 µM [activator, partial curve]
Cc1cccnc1NC(=S)Nc1ccc(Br)cc1Cl |  | inconclusive: 2.59 µM [activator, partial curve]
COc1ccc(N=C2C(=Nc3ccc(OC)cc3)N(c3ccc(OC)cc3)C(=S)N2c2ccccc2)cc1 |  | inconclusive: 16.4 µM [activator, partial curve, poor fit]
O=C(Nc1ccnn1C1CCN(C(=O)CCc2ccc(F)cc2)CC1)C1CCOC1 (stereo unspecified) | inactive: 4.47% | 
COc1cc(Cl)c(C)cc1NC(=O)c1cccc(OC)c1OC | inactive: 18.2% | 
COC(=O)[C@H]1C[C@H](C(=O)O)[C@@H](C)C1(C)C | inactive: 2.92% | 
Cc1ccc2oc(-c3cccc(NC(=S)NC(=O)c4cccs4)c3)nc2c1 |  | inconclusive: 13 µM [activator, partial curve, poor fit]
COC(=O)c1cc(NCc2cccs2)ccc1N1CCOCC1 |  | inconclusive: 20.6 µM [activator, partial curve]

SMILES | activity change, positive = activation | Potency
c1ccc2oc(NC3=NCN(CC4CCCO4)CN3)nc2c1 (stereo unspecified) |  | active: 10 µM
Cc1ccc(S(=O)(=O)N2CC(C)N(C(=O)N3CCOCC3)C2C)cc1 (stereo unspecified) | inactive: -4.97% | 
Cc1ccc2nc3ccc(N4CCN(C)CC4)nn3c(=O)c2c1 |  | inconclusive: 8.2 µM [activator, partial curve, poor fit]
CCOC(=O)C1=C(C(F)(F)F)Nc2ncnn2C1c1ccc(OC)cc1OC (stereo unspecified) | inactive: 3.81% | 
O=C(NC(=S)Nc1cccc([N+](=O)[O-])c1)c1ccco1 | inactive: 6.31% | 
COc1cccc(NC(=O)c2sc3nc4n(c(=O)c3c2C)CCC4)c1 |  | inconclusive: 13 µM [activator, partial curve, poor fit]
CC(=O)c1sc(NC(=O)c2ccco2)nc1-c1ccccc1 |  | active: 14.6 µM
Cc1ccc(S(=O)(=O)N2CCC(C(=O)OCC(=O)N(Cc3ccccc3)C(C)(C)C)CC2)cc1C |  | inconclusive: 18.3 µM [activator, single point]
COc1cc(/C=N/NC(=O)c2cccc([N+](=O)[O-])c2)cc(OC)c1O | inactive: -1.14% | 
COC(=O)/C(C#N)=C/c1c[nH]c2ccccc12 |  | inconclusive: 13 µM [activator, partial curve, poor fit]
Cn1cccc1C(=O)NC(=O)COC(=O)C12CC3CC(CC(O)(C3)C1)C2 |  | active: 9.2 µM
CC(C)Oc1ccc2c(=O)c(-c3ccccc3)coc2c1 |  | active: 9.2 µM
CC(=O)Nc1nc2ccc(-c3nc4ccccc4o3)cc2s1 |  | inconclusive: 11.6 µM [activator, partial curve]
CC1CCc2sc(C(=O)NC3CCCCC3)cc2C1 (stereo unspecified) |  | inconclusive: 3.66 µM [activator, full curve]
COC(=O)c1ccc(NC(=O)c2ccc(OC(C)=O)c(OC)c2)cc1 |  | inconclusive: 16.4 µM [activator, single point]
Cc1ccccc1-n1c(C)cc(/C=C2\NC(=O)NC2=O)c1C |  | active: 14.6 µM
S=C(NCCc1ccc(Cl)cc1)NC1CCCC1 | inactive: -1.34% | 
COc1cc(/C=N/Nc2ncnc3sc4c(c23)CCC4)ccc1O |  | inconclusive: 2.91 µM [activator, full curve, poor fit]
